# Measured values from the supplement of paper PMC8728848.
# This is one part of the list.
# Experiments:
# Test in all cases: glycan array binding signal (z-score within array); higher = stronger binding
# Conditions in all cases: glycan notation: IUPAC condensed, linker removed
# [1] = target: GlcNAc(b1-3)Gal(b1-3)GalNAc
# Summary of the method: (§1)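 Arrays were curated from the Consortium for Functional Glycomics database, 3228 in total, and kept only where the protein sequence was available. Binding is expressed as a within-array Z-score. This score was averaged across arrays of the same protein sequence at different concentrations or buffers and across linkers, and negative values can be read as non-binding.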
# [2] = target: GlcNAc(b1-3)Gal(b1-4)Glc
# Summary of the method: as §1
# [3] = target: GlcNAc(b1-3)Gal(b1-4)GlcNAc
# Summary of the method: as §1
# [4] = target: GlcNAc(b1-3)Gal(b1-4)GlcNAc(b1-2)Man(a1-3)[GlcNAc(b1-3)Gal(b1-4)GlcNAc(b1-2)Man(a1-6)]Man(b1-4)GlcNAc(b1-4)GlcNAc
# Summary of the method: as §1
# [5] = target: GlcNAc(b1-3)Gal(b1-4)GlcNAc(b1-2)Man(a1-3)[GlcNAc(b1-3)Gal(b1-4)GlcNAc(b1-2)Man(a1-6)]Man(b1-4)GlcNAc(b1-4)[Fuc(a1-6)]GlcNAc
# Summary of the method: as §1
# [6] = target: GlcNAc(b1-3)Gal(b1-4)GlcNAc(b1-2)[GlcNAc(b1-3)Gal(b1-4)GlcNAc(b1-6)]Man(a1-6)[GlcNAc(b1-3)Gal(b1-4)GlcNAc(b1-2)Man(a1-3)]Man(b1-4)GlcNAc(b1-4)GlcNAc
# Summary of the method: as §1
# [7] = target: GlcNAc(b1-3)Gal(b1-4)GlcNAc(b1-3)Gal(b1-4)GlcNAc
# Summary of the method: as §1
# [8] = target: GlcNAc(b1-3)Gal(b1-4)GlcNAc(b1-3)Gal(b1-4)GlcNAc(b1-2)Man(a1-3)[GlcNAc(b1-3)Gal(b1-4)GlcNAc(b1-3)Gal(b1-4)GlcNAc(b1-2)Man(a1-6)]Man(b1-4)GlcNAc(b1-4)GlcNAc
# Summary of the method: as §1
# [9] = target: GlcNAc(b1-3)Gal(b1-4)GlcNAc(b1-3)Gal(b1-4)GlcNAc(b1-2)Man(a1-3)[GlcNAc(b1-3)Gal(b1-4)GlcNAc(b1-3)Gal(b1-4)GlcNAc(b1-2)Man(a1-6)]Man(b1-4)GlcNAc(b1-4)[Fuc(a1-6)]GlcNAc
# Summary of the method: as §1
# [10] = target: GlcNAc(b1-3)Gal(b1-4)GlcNAc(b1-3)Gal(b1-4)GlcNAc(b1-2)[GlcNAc(b1-3)Gal(b1-4)GlcNAc(b1-3)Gal(b1-4)GlcNAc(b1-6)]Man(a1-6)[GlcNAc(b1-3)Gal(b1-4)GlcNAc(b1-3)Gal(b1-4)GlcNAc(b1-2)Man(a1-3)]Man(b1-4)GlcNAc(b1-4)[Fuc(a1-6)]GlcNAc
# Summary of the method: as §1
# [11] = target: GlcNAc(b1-3)Gal(b1-4)GlcNAc(b1-3)Gal(b1-4)GlcNAc(b1-3)Gal(b1-4)GlcNAc(b1-2)Man(a1-3)[GlcNAc(b1-3)Gal(b1-4)GlcNAc(b1-3)Gal(b1-4)GlcNAc(b1-3)Gal(b1-4)GlcNAc(b1-2)Man(a1-6)]Man(b1-4)GlcNAc(b1-4)GlcNAc
# Summary of the method: as §1
# [12] = target: GlcNAc(b1-3)Gal(b1-4)GlcNAc(b1-3)Gal(b1-4)GlcNAc(b1-3)Gal(b1-4)GlcNAc(b1-2)Man(a1-3)[GlcNAc(b1-3)Gal(b1-4)GlcNAc(b1-3)Gal(b1-4)GlcNAc(b1-3)Gal(b1-4)GlcNAc(b1-2)Man(a1-6)]Man(b1-4)GlcNAc(b1-4)[Fuc(a1-6)]GlcNAc
# Summary of the method: as §1
# [13] = target: GlcNAc(b1-3)Gal(b1-4)GlcNAc(b1-3)Gal(b1-4)GlcNAc(b1-3)Gal(b1-4)GlcNAc(b1-2)[GlcNAc(b1-3)Gal(b1-4)GlcNAc(b1-3)Gal(b1-4)GlcNAc(b1-3)Gal(b1-4)GlcNAc(b1-6)]Man(a1-6)[GlcNAc(b1-3)Gal(b1-4)GlcNAc(b1-3)Gal(b1-4)GlcNAc(b1-3)Gal(b1-4)GlcNAc(b1-2)Man(a1-3)]Man(b1-4)GlcNAc(b1-4)[Fuc(a1-6)]GlcNAc
# Summary of the method: as §1
# [14] = target: GlcNAc(b1-3)Gal(b1-4)GlcNAc(b1-3)Gal(b1-4)GlcNAc(b1-3)Gal(b1-4)GlcNAc(b1-3)Gal(b1-4)GlcNAc(b1-2)Man(a1-3)[GlcNAc(b1-3)Gal(b1-4)GlcNAc(b1-3)Gal(b1-4)GlcNAc(b1-3)Gal(b1-4)GlcNAc(b1-3)Gal(b1-4)GlcNAc(b1-2)Man(a1-6)]Man(b1-4)GlcNAc(b1-4)GlcNAc
# Summary of the method: as §1
# [15] = target: GlcNAc(b1-3)Gal(b1-4)GlcNAc(b1-3)Gal(b1-4)GlcNAc(b1-3)Gal(b1-4)GlcNAc(b1-3)Gal(b1-4)GlcNAc(b1-2)Man(a1-3)[GlcNAc(b1-3)Gal(b1-4)GlcNAc(b1-3)Gal(b1-4)GlcNAc(b1-3)Gal(b1-4)GlcNAc(b1-3)Gal(b1-4)GlcNAc(b1-2)Man(a1-6)]Man(b1-4)GlcNAc(b1-4)[Fuc(a1-6)]GlcNAc
# Summary of the method: as §1
# [16] = target: GlcNAc(b1-3)Gal(b1-4)GlcNAc(b1-3)Gal(b1-4)GlcNAc(b1-3)Gal(b1-4)GlcNAc(b1-3)Gal(b1-4)GlcNAc(b1-2)[GlcNAc(b1-3)Gal(b1-4)GlcNAc(b1-3)Gal(b1-4)GlcNAc(b1-3)Gal(b1-4)GlcNAc(b1-3)Gal(b1-4)GlcNAc(b1-6)]Man(a1-6)[GlcNAc(b1-3)Gal(b1-4)GlcNAc(b1-3)Gal(b1-4)GlcNAc(b1-3)Gal(b1-4)GlcNAc(b1-3)Gal(b1-4)GlcNAc(b1-2)Man(a1-3)]Man(b1-4)GlcNAc(b1-4)[Fuc(a1-6)]GlcNAc
# Summary of the method: as §1
# [17] = target: GlcNAc(b1-3)Gal(b1-4)GlcNAc(b1-3)Gal(b1-4)GlcNAc(b1-3)GalNAc
# Summary of the method: as §1
# [18] = target: GlcNAc(b1-3)Gal(b1-4)GlcNAc(b1-3)GalNAc
# Summary of the method: as §1
# [19] = target: GlcNAc(b1-3)Gal(b1-4)GlcNAc(b1-3)[GlcNAc(b1-3)Gal(b1-4)GlcNAc(b1-3)]GalNAc
# Summary of the method: as §1
# [20] = target: GlcNAc(b1-3)Gal(b1-4)GlcNAc(b1-6)[Gal(b1-3)]GalNAc
# Summary of the method: as §1
# [21] = target: GlcNAc(b1-3)Gal(b1-4)GlcNAc(b1-6)[GlcNAc(b1-3)Gal(b1-3)]GalNAc
# Summary of the method: as §1
# [22] = target: GlcNAc(b1-3)Gal(b1-4)GlcNAc(b1-6)[GlcNAc(b1-3)]Gal(b1-4)GlcNAc
# Summary of the method: as §1
# [23] = target: GlcNAc(b1-3)GalNAc
# Summary of the method: as §1
# [24] = target: GlcNAc(b1-3)Man
# Summary of the method: as §1
# [25] = target: GlcNAc(b1-3)[GlcNAc(b1-4)][GlcNAc(b1-6)]GlcNAc
# Summary of the method: as §1
# [26] = target: GlcNAc(b1-3)[GlcNAc(b1-6)]Gal(b1-4)GlcNAc
# Summary of the method: as §1
# [27] = target: GlcNAc(b1-3)[GlcNAc(b1-6)]GalNAc
# Summary of the method: as §1
# [28] = target: GlcNAc(b1-4)Gal(b1-4)GlcNAc
# Summary of the method: as §1
# [29] = target: GlcNAc(b1-4)GlcNAc
# Summary of the method: as §1
# [30] = target: GlcNAc(b1-4)GlcNAc(b1-4)GlcNAc
# Summary of the method: as §1
# [31] = target: GlcNAc(b1-4)GlcNAc(b1-4)GlcNAc(b1-4)GlcNAc(b1-4)GlcNAc
# Summary of the method: as §1
# [32] = target: GlcNAc(b1-4)GlcNAc(b1-4)GlcNAc(b1-4)GlcNAc(b1-4)GlcNAc(b1-4)GlcNAc
# Summary of the method: as §1
# [33] = target: GlcNAc(b1-4)[GlcNAc(b1-6)]GalNAc
# Summary of the method: as §1
# [34] = target: GlcNAc(b1-6)Gal(b1-4)GlcNAc
# Summary of the method: as §1
# [35] = target: GlcNAc(b1-6)GalNAc
# Summary of the method: as §1
# [36] = target: GlcNAc6S(b1-3)Gal(b1-4)GlcNAc
# Summary of the method: as §1
# [37] = target: Kdn(a2-3)Gal(b1-3)GalNAc
# Summary of the method: as §1
# [38] = target: Kdn(a2-3)Gal(b1-3)GlcNAc
# Summary of the method: as §1
# [39] = target: Kdn(a2-3)Gal(b1-4)Glc
# Summary of the method: as §1
# [40] = target: Kdn(a2-3)Gal(b1-4)GlcNAc
# Summary of the method: as §1
# [41] = target: Kdn(a2-3)Gal(b1-4)[Fuc(a1-3)]GlcNAc
# Summary of the method: as §1
# [42] = target: Kdn(a2-6)Gal(b1-4)GlcNAc
# Summary of the method: as §1
# [43] = target: Man(a1-2)Man(a1-2)Man(a1-3)Man
# Summary of the method: as §1
# [44] = target: Man(a1-2)Man(a1-2)Man(a1-6)[Man(a1-3)]Man
# Summary of the method: as §1
# [45] = target: Man(a1-2)Man(a1-3)Man
# Summary of the method: as §1
binder,measurement,setting,value
"LSL-150 (Laetiporus sulphureus), Q7Z8V1 (protein) MTDIYIPPEGLYFRLLGFASRQVIFARNSPSPDVGLSPVNDQATDQYFSLIYGTGEHAGLYAIKSKATGKVLFSRRPAEPYVGQIDGDGRYPDNWFKIEPGKTYLSKYFRLVQPSTGTALVSRTHLQPYFWNHPQTEVFDDQYFTFLFEDHHHHHH",glycan array binding signal (z-score),[1],-0.199
same,glycan array binding signal (z-score),[2],-0.19
same,glycan array binding signal (z-score),[3],-0.179
same,glycan array binding signal (z-score),[4],0.096
same,glycan array binding signal (z-score),[5],0.158
same,glycan array binding signal (z-score),[6],-0.047
same,glycan array binding signal (z-score),[7],0.299
same,glycan array binding signal (z-score),[8],0.937
same,glycan array binding signal (z-score),[9],1.84
same,glycan array binding signal (z-score),[10],1.08
same,glycan array binding signal (z-score),[11],4.23
same,glycan array binding signal (z-score),[12],3.62
same,glycan array binding signal (z-score),[13],3.94
same,glycan array binding signal (z-score),[14],5.26
same,glycan array binding signal (z-score),[15],4.72
same,glycan array binding signal (z-score),[16],7.09
same,glycan array binding signal (z-score),[17],-0.039
same,glycan array binding signal (z-score),[18],-0.179
same,glycan array binding signal (z-score),[19],-0.181
same,glycan array binding signal (z-score),[20],-0.191
same,glycan array binding signal (z-score),[21],-0.193
same,glycan array binding signal (z-score),[22],-0.187
same,glycan array binding signal (z-score),[23],-0.21
same,glycan array binding signal (z-score),[24],-0.214
same,glycan array binding signal (z-score),[25],-0.188
same,glycan array binding signal (z-score),[26],-0.206
same,glycan array binding signal (z-score),[27],-0.208
same,glycan array binding signal (z-score),[28],-0.205
same,glycan array binding signal (z-score),[29],-0.212
same,glycan array binding signal (z-score),[30],-0.206
same,glycan array binding signal (z-score),[31],-0.203
same,glycan array binding signal (z-score),[32],-0.199
same,glycan array binding signal (z-score),[33],-0.204
same,glycan array binding signal (z-score),[34],-0.202
same,glycan array binding signal (z-score),[35],-0.197
same,glycan array binding signal (z-score),[36],-0.202
same,glycan array binding signal (z-score),[37],-0.201
same,glycan array binding signal (z-score),[38],-0.202
same,glycan array binding signal (z-score),[39],-0.206
same,glycan array binding signal (z-score),[40],-0.198
same,glycan array binding signal (z-score),[41],-0.202
same,glycan array binding signal (z-score),[42],-0.206
same,glycan array binding signal (z-score),[43],-0.205
same,glycan array binding signal (z-score),[44],-0.207
same,glycan array binding signal (z-score),[45],-0.213
